# In patent US12521446B2, “Anti-CEACAM5 antibody drug conjugates” (Bristol-Myers Squibb Company, priority 2024, dated 2026):
# T1: human CEACAM8 (Homo sapiens, UniProt P31997)
# T1 construct: purchased R&D Systems 9639-CM-050
# T1 sequence (P31997 35-320): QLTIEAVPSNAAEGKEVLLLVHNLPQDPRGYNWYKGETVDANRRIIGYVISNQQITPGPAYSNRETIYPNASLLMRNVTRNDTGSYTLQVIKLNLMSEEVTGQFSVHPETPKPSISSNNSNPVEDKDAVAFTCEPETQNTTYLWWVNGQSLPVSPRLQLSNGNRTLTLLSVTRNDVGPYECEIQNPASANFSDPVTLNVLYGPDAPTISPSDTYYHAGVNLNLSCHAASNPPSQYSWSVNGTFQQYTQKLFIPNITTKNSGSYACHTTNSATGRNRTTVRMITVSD
# T2: full-length human CEACAM5 (Homo sapiens, UniProt P06731, T210S)
# T2 construct: The SPR kinetics against full-length human and cyno CEACAM5 were set up as follows
# T2 sequence (P06731 35-702 T210S): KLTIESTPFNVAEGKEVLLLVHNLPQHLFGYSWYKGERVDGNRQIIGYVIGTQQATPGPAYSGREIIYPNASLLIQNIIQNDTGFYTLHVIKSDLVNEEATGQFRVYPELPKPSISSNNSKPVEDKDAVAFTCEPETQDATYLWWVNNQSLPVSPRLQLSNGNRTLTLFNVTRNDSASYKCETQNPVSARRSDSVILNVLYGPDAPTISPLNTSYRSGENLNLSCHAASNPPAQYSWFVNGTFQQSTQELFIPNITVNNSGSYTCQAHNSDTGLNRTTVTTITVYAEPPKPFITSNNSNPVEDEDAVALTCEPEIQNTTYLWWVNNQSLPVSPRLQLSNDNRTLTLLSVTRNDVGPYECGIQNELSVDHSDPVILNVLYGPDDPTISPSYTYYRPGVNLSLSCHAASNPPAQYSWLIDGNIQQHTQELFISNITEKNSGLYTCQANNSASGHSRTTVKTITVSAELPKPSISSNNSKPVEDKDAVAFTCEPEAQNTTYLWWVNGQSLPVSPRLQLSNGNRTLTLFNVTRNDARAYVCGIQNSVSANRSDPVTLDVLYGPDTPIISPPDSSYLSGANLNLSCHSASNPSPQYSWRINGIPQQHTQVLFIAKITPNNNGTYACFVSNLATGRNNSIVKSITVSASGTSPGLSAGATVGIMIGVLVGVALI
# T3: human CEACAM7 (Homo sapiens, UniProt Q14002)
# T3 construct: purchased R&D Systems 9010-CM-050
# T3 sequence (Q14002 36-242): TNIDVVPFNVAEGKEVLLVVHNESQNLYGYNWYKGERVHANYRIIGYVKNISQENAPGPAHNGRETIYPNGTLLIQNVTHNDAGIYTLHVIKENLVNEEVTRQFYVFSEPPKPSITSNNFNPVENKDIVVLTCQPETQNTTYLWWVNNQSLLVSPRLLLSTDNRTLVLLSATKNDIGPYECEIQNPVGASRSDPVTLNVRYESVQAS
# B1: MBP003: hIgG1 progeny of MBN001; VH SEQ ID NO: 51, VL SEQ ID NO: 52; IgG1.3f antibody MBP004 (antibody, V domains shown)
# VH: QVQLVESGGGVVQPGRSLRLSCAASGITFSSHGMHWVRQAPGKGLEWVTFISYDGSYKSYVDSVKGRFTISRDNSKNTLYLQMNSLRAEDTAVYYCATGLTGTGAFDIWGQGTMVTVSS
# VL: [about 100 residues not shown]
# B2: MBP002: hIgG1 progeny of MBN001; VH SEQ ID NO: 49, VL SEQ ID NO: 50; IgG1.3f antibody MBP008 (antibody, V domains shown)
# VH: QVQLVESGGGVVQPGRSLRLSCAASGITFSSHGMHWVRQAPGKGLEWVTFISYDGSYKSYVDSVKGRFTISRDNSKNTLYLQMNSLRAEDTAVYYCATGLTGTNALDIWGQGTMVTVSS
# VL: [about 100 residues not shown]YTFGQGTKLEIK
# Legend:
# human CEACAM8 = target: T1, human CEACAM8; experiment: SPR binding to human CEACAM8; settings: data not shown
# Source text: (§1) The CEACAM5 mAbs were similarly examined for binding to human CEACAM8 (R&D Systems catalog #9639-CM-050).
# [1] = target: T2, full-length human CEACAM5; experiment: SPR kinetics of progeny antibodies (BIACORE), Example 8; format: binding; settings: hIgG1 progeny antibodies, Table 12B
# [2] = test system: human CEACAM1 (CHO-S) and human CEACAM6 (HCT-116); experiment: Non-specific binding to cell lines engineered to express human CEACAM1 and human CEACAM6; settings: HCT-116 (CEACAM6), FIG. 8A, 8B
# Source text: Note that these progeny were also made in a hIgG1 form 1 as opposed to the hIgG1.3f form described in this Example. Both the hIgG1 form and the hIgG1.3f form shared the same heavy chain variable region and the same light chain variable region, i.e., only the CH2 regions of heavy chain were adapted, such that their binding characteristics would be expected to be similar.
# full-length cyno CEACAM5 = experiment: SPR kinetics of progeny antibodies (BIACORE), Example 8; format: binding, cynomolgus; settings: hIgG1 progeny antibodies, Table 12B; for Kd: read-out: cyCEACAM5 KD
# Ls174T = experiment: Internalization of progeny antibodies (Incucyte, pHrodo red), Example 9; format: cell-based; settings: hIgG1 progeny, 25 nM mAb, Table 13B
# Procedure: (§2) The MKN45 or Ls174T cells were seeded at 10K cells/well (50 uL).
# (§3) Cell lines were first analyzed for cell density and viability using a Vi-cell viability machine. The cell lines were diluted to 0.2E6 vc/mL in growth media, and a volume (50 uL) of each was dispensed to a flat-bottom 96-well plate to achieve cell counts of 10K cells/well. Ls174T media included MEM with 10% HI-FBS and 1% pen/strep. MKN45 media included RPMI (ATCC modification) with 10% HI-FBS and 1% pen/strep. HCT-116 media included McCoy's 5a with 10% HI-FBS, 1% pen/strep, and 6 μg/mL Blasticidin. Cells were allowed to adhere to wells of the 96-well plate (Corning Cat. No. 3595) at 37° C./5% CO2 for approximately 4 hours.
# Each test mAb and control mAb was labeled by first pre-mixing the respective antibody with a pHrodo red (Fab conjugated to pH-sensitive; Thermo cat #Z25612) secondary reagent at a 3:1 dye:mAb molar ratio. A series of dilutions were prepared at 2× target concentration in growth media. The final mAb target concentration was 25 nM. […]
# (§4) Coated plates contacted with the labeled mAbs were incubated at 37° C. for 30 minutes. Each plate was then read using an Incucyte apparatus, which collected images from the red and phase channels [10× objective; 3 images/well] for a 24-hour duration, with reads of plates every 30 minutes.
# MKN45 = experiment: as above; format: cell-based; settings: hIgG1 progeny, 25 nM mAb, Table 13B
# Procedure: Antibodies were evaluated for internalization using HCT-116-huCEACAM5, HCT-116-cyCEACAM5, and MKN45 cell lines.
# as §2, §3
# Each test mAb and control mAb was labeled by first pre-mixing the respective antibody with a pHrodo red (Fab conjugated to pH-sensitive; Thermo cat #Z25612) secondary reagent at a 3:1 dye:mAb molar ratio. A series of dilutions were prepared at 2× target concentration in growth media. The final mAb target concentration was 25 nM. A volume (50 uL) of labeled mAb samples were added to the plated cells to achieve a target mAb concentration (25 nM).
# as §4
# human CEACAM7 = target: T3, human CEACAM7; experiment: SPR binding to human CEACAM7; settings: data not shown
# Source text: as §1
# [3] = test system: BxPC3 cells and MKN45 cells as target cells; experiment: ADCC Jurkat-NFAT-FcγRIIIa (Promega) reporter cell assay; format: cell-based; settings: six hours co-incubation with Jurkat-FcγRIIIa effector cells
# Procedure: FIGS. 11A-11B are graphs showing the ADCC activity of anti-human CEACAM5 mAbs in Jurkat-NFAT-FcγRIIIa (Promega) cell assays across CEACAM5-medium expressing BxPC3 (FIG. 11A) and CEACAM5-high expressing MKN45 (FIG. 11B) cells.
# ADCC activity was also analyzed with anti-human lead CEACAM5 mAbs in a Jurkat-NFAT-FcγRIIIa (Promega)cell assay (catalog number G9901) using BxPC3 cells and MKN45 cells as target cells. […] Jurkat-FcγRIIIa effector cells were then co-incubated with targets cells for six hours. NFAT activation, reflecting the induced ADCC response, was assessed by determining luciferase activity.
Molecule,binding to human CEACAM8 (human CEACAM8),huCEACAM5 ka [1],huCEACAM5 kd [1],non-specific human CEACAM1 and human CEACAM6 cross-reactivity [2],cyCEACAM5 ka (full-length cyno CEACAM5),cyCEACAM5 kd (full-length cyno CEACAM5),Kd (full-length cyno CEACAM5),Ls174T 24 hr red/phase AUC (internalization) (Ls174T),MKN45 24 hr red/phase AUC (internalization) (MKN45),binding to human CEACAM7 by SPR (human CEACAM7),"ADCC activity (NFAT activation, luciferase) [3]"
B1,no binding was observed,42000 M⁻¹ s⁻¹,0.000982 s⁻¹,absence of non-specific human CEACAM1 and human CEACAM6 cross-reactivity,26400 M⁻¹ s⁻¹,0.00114 s⁻¹,43.1 nM,0.67,2.62,No binding was observed,limited ADCC activity
B2,no binding was observed,43300 M⁻¹ s⁻¹,0.000228 s⁻¹,absence of non-specific human CEACAM1 and human CEACAM6 cross-reactivity,37800 M⁻¹ s⁻¹,0.000502 s⁻¹,13.3 nM,0.72,2.58,No binding was observed,limited ADCC activity
